Measured values as given in PubChem BioAssay AID1645887 (National Center for Advancing Translational Sciences (NCATS), 2021).
Several values for one entry are separate records, joined by “and”; a condition that tells them apart may be missing. Equal entries are not always repeated. Screen size: about 16,000 compounds; about 40 (0.2%) were called active. Another 1% or so got no clear call; they are omitted. Calls come from the whole dose curve; as a rule, active = well fitted activation curve with a large enough effect; inconclusive = small, poorly fitted or top-dose-only effect, or another doubt; inactive = no such curve, though single readings can be large or run the other way. Some of the results follow.

Biological target: Rap guanine nucleotide exchange factor 4 (Homo sapiens) (UniProt Q8WZA2)
Assay: Validation qHTS for agonist of cAMP-regulated guanine nucleotide exchange factor 4 (EPAC2);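 note: exchange makes BODIPY-GDP fluorescence drop when released from Rap1B; series mostly up to about 150 µM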
Conditions: EPAC2 Rap1B BODIPY-GDP exchange, fluorescence; activation: hits give high values
Outline: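 Fluorescent exchange assay: 100 nM EPAC2 with 250 nM RAP1B-BODIPY-GDP and 50 uM GDP; compound added, 5 min at room temperature, then read (ex 480/em 540 nm) every 5 min for 30 min. Normalized to 6.5 mM cAMP agonist control.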
% is set by controls: 0 for no effect and ±100 for the full control effect.

UniProt Q8WZA2, sequence (Q8WZA2 whole entry, looked up): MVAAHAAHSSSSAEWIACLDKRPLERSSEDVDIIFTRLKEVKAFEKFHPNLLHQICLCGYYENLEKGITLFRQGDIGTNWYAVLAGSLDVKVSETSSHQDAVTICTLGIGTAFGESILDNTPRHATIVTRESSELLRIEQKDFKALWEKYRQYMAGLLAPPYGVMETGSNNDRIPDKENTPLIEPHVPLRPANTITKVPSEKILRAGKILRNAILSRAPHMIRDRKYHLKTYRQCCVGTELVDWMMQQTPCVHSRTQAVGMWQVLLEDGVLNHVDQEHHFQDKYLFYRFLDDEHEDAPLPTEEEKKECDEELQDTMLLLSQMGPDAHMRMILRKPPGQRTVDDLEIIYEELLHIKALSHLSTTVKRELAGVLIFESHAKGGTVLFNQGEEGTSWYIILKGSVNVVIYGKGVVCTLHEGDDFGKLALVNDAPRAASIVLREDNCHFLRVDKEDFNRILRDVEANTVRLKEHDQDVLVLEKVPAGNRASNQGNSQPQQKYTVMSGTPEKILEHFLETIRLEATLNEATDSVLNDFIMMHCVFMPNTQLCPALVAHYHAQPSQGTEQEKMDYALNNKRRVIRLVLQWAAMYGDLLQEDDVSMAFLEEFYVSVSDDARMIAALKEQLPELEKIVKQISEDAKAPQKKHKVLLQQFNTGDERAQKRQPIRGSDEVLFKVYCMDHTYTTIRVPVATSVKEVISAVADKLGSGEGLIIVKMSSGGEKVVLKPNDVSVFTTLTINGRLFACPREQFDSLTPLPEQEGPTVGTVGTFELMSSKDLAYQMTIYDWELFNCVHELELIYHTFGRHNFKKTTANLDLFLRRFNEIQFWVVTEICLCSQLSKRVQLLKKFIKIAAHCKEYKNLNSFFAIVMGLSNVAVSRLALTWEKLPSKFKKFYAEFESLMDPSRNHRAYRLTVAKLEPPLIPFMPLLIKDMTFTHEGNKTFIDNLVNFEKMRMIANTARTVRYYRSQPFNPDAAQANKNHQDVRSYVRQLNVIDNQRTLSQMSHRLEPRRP

activation, inactive:
CC(=O)N[C@@H](CCC(=O)O)C(=O)O 11.5%
Cc1ccccc1-c1ccc2ncnc(NCc3cccs3)c2c1 -8.39%
CC1=CC(=O)NS(=O)(=O)O1 -1.09%
Nc1ncnc2c1ncn2[C@@H]1O[C@H](COP(=O)(O)OP(=O)(O)OP(=O)(O)OP(=O)(O)OC[C@@H]2O[C@H](n3cnc4c(N)ncnc43)[C@@H](O)[C@H]2O)[C@@H](O)[C@H]1O 12.8% and -62.2%
COc1ccc(-n2c(CNC(=O)c3c(-c4ccccc4)noc3C)nnc2SC)cc1 -16.2%
O=C(c1ccco1)N1CCC2(CC1)CCN(c1ncccn1)CC2 -2.43%
O=C(c1ccncc1)N1CCC[C@@]2(CCN(c3ncccn3)C2)C1 -14.8%
FC(F)(F)C(F)(F)C(F)(F)C(F)(F)C(F)(F)C(F)(F)C(F)(F)C(F)(F)Br 5.37%
CCOc1ccc(N=C(C)Nc2ccc(OCC)cc2)cc1 -15%
CC(C)c1c(O)ccc2c1CCC1C(C)(C)CCC[C@@]21C (stereo not given in full) -14.4%
CN1CCCC1c1cccnc1 (stereo not given) -2.74%
O=C(c1cnccn1)N1CCC2(CCN(Cc3cc(C(F)(F)F)cc(C(F)(F)F)c3)CC2)CC1 -33.6%
CN1CCCC(n2nc(Cc3ccc(Cl)cc3)c3ccccc3c2=O)CC1 (stereo not given) -11.8%
CCCCCCCCN1[C@@H](CC(=O)OCC)c2ccc(C(F)(F)F)cc2S1(=O)=O -50.2%
Cc1ccc(C)c2c(C)ccnc12 -9.37%
CC(C)[C@@H](COc1ccccc1)N1CCN(Cc2ccccc2)CCC1=O -33.7%
COc1cccc(CN2Cc3cccc4c3[C@H](C=CC4)CC2=O)c1 -7.06%
Cc1cnc2ccccc2c1C -19.8%
COc1ccc(CN2CCOc3ccc(C(O)c4cccnc4)cc3C2)cc1 (stereo not given) -16.3%
CCCCCCCN1CCC(=O)N([C@H](CO)Cc2ccccc2)CC1 -58.2%
Nc1nc(-c2ccccc2)c(Br)c(=O)[nH]1 11.7%
NC(N)=N/N=C\c1c(Cl)cccc1Cl -4.63%
CCCCCCCN1CCC(=O)N(CCO)CC1 4.65%
COc1cc(-c2cccnc2)cc2c1OCCN(C(=O)Cc1csc(C)n1)C2 -0.405%
O[C@@H](c1ccccc1)C1CCN(CCc2ccccc2)CC1 -7.8%
CCN(CC)CCOc1ccc(/C(=C(\Cl)c2ccccc2)c2ccccc2)cc1 -0.0547% and 2.6%
CC(=O)OCOC(=O)CN(CC(=O)OCOC(C)=O)c1ccccc1OCCOc1ccccc1N(CC(=O)OCOC(C)=O)CC(=O)OCOC(C)=O -2.6%
O=[N+]([O-])c1ccc2nc(CO)[nH]c2c1 -9.59%
COc1ccccc1CNc1ncncc1-c1ccccc1Cl -13.8%
CCNc1ncc2nc(-c3ccc(OC)cc3)c(=O)n(-c3ccc(OC)cc3)c2n1 0.246%
c1cncc(-c2cncnc2NC2CCNCC2)c1 -12.3%
NCC1CCC(C(=O)Oc2ccc(CCC(=O)O)cc2)CC1 (stereo not given) -15.8%
CCC1(C2CCN(C(=O)c3csc(C(C)=O)c3)CC2)NC(=O)N(CCc2scnc2C)C1=O (stereo not given) -1.67%
CNc1ccnc(-c2ccccc2OC)n1 -23%
CCNc1ncc2nc(CCc3ccccc3)c(=O)n(C)c2n1 -9.4%
C=C1c2c(Cl)ccc(O)c2C(O)=C2C(=O)[C@]3(O)C(O)=C(C(N)=O)C(=O)[C@@H](N(C)C)[C@@H]3[C@@H](O)C12 (stereo not given in full) -2.25%
NC(=O)N/N=C/c1ccc([N+](=O)[O-])o1 -10.8% and 9.55% and 11%
O=C(O[C@H]1CN2CCC1CC2)N1CCc2ccccc2[C@@H]1c1ccccc1 -4.55%
C=C1c2cccc(O)c2C(O)=C2C(=O)[C@]3(O)C(O)=C(C(N)=O)C(=O)C(N(C)C)C3C(O)C12 (stereo not given in full) -12.1%
Cc1c(C(=O)NCCCN2CCCC2=O)cnn1-c1ncc2c(n1)-c1ccccc1CC2 4.81%
O=C(O)c1[nH]n(-c2ccc(S(=O)(=O)O)cc2)c(=O)c1N=Nc1ccc(S(=O)(=O)O)cc1 -21.8%
COc1ccc(Oc2ncc3ncc(=O)n(Cc4ccc(F)cc4)c3n2)cc1 -8.25%
O=C[C@H](O)[C@@H](O)[C@@H](O)[C@H](O)CO -8.18%
COc1ccc(-n2c(=O)c(-c3cccs3)nc3cnc(N(C)C)nc32)cc1 -14.5%
CC(C)C[C@H](NC(=O)[C@H](CCc1ccccc1)NC(=O)CN1CCOCC1)C(=O)N[C@@H](Cc1ccccc1)C(=O)N[C@@H](CC(C)C)C(=O)[C@@]1(C)CO1 -11%
O=c1ccn([C@@H]2O[C@H](COP(=O)(O)O)[C@@H](O)[C@H]2O)c(=O)[nH]1 -4.23%
N#Cc1cccc(-c2ccc3ncnc(NCc4cccnc4)c3c2)c1 -15.9%
O=S(O)CNc1ccc(S(=O)(=O)c2ccc(NCS(=O)O)cc2)cc1 -12.8%
CC(C)[C@H](N)C(=O)OCCOCn1cnc2c(=O)[nH]c(N)nc21 17.3%
CC(C)(O)C#Cc1ccc(CN2CCc3nnc(CCNC(=O)c4ccco4)n3CC2)cc1 -4.75%
O=C(CCN1Cc2ccccc2OC(c2ccccc2)C1)N[C@@H]1CS(=O)(=O)C[C@H]1O (stereo not given in full) -2.36%
Brc1c(Br)c(Br)c2n[nH]nc2c1Br -60.9%
Cc1ccc2[nH]nc(C(=O)N3CCOc4ccc(CN5CCc6sccc6C5)cc4C3)c2c1 -20.3%
CN(C)C(=N)N=C(N)N 4.5% and 4.91%
CN1CCC(=O)N([C@H](CN=[N+]=[N-])c2ccccc2)CC1 -14.9%
